PubChem BioAssay AID1508623 (National Center for Advancing Translational Sciences (NCATS), 2021)
Hit rate of the full screen: of about 48,000 compounds, about 450 (0.94%) were called active. Not shown: some 19% with an inconclusive outcome. The call rests on the fitted dose curve; in most records, active means well fitted inhibition curve with a large enough effect; inconclusive means small, poorly fitted or top-dose-only effect; inactive means no such curve, though single readings can be large or run the other way. The list shows a part of the results.

Experiment: Primary qHTS for Identification of Small Molecule Inhibitors of Huntingtin Promoter Activity; further: nearly all actives have a fitted effect of over 50% in size
Conditions: HEK293 HTT promoter firefly luciferase reporter (activity 0% = vehicle and -100% = no light), 24 h; series mostly up to 57.5 µM; activity change, negative = inhibition: at the top concentration
Method in brief: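 HEK293 Fluc reporter, 2,500 cells/well, 24 h pre-culture; cpds up to 57.5 uM final, 24 h 37 degrees C; Dual-Glo, 10 min RT; normalized vehicle = 0%, zero RLU = -100%.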

Activity change, negative = inhibition, inactive:
COC(=O)c1ccccc1NC(=O)C1CCCN(c2nnc(C)c3c(C)n(-c4ccccc4)nc23)C1 (configuration not stated) 16.4%
COc1ccc(OCC(=O)NCC(c2ccc(OC)cc2)N2CCOCC2)cc1 (configuration not stated) -6.26%
Cc1cc(NC(=O)C(C)(C)C)cc(-c2nc3ncccc3o2)c1O -11.1%
Cc1cc(NC(=O)c2cnc3c(-c4ccccc4)c(C)nn3c2C)ccc1Br -23%
Cc1cccc(N2CCN(C(=O)CN3C(=O)COc4ccc(S(=O)(=O)N5CCCC5)cc43)CC2C)c1 (configuration not stated) -24.9%
CCn1c(SCC(=O)c2ccccc2)nnc1-c1cccc(Cl)c1 0.805%
CCc1c(CN2CCN(c3ccccc3F)CC2)csc1C -2.41%
Cc1ccc(/C=C/c2onc(C)c2S(=O)(=O)N2CCC(C(=O)NCc3ccc(OC(C)C)cc3)CC2)cc1 -19.5%
COc1ccc(-c2c(C)c3ccc(O)c(CN4CCCC4)c3oc2=O)cc1 3.98%
COc1cccc(CNCCSc2nnnn2-c2ccccc2)c1OC -13.6%
COc1ccc(-c2cc(C(F)(F)F)n3nc(C(=O)Nc4cc(C)ccc4C)cc3n2)cc1 -17.4% [at 11.5 µM]
Cc1ccc2c(c1)c1c3n2CCN(C(=O)c2ccc(C(F)(F)F)cc2)C3CCC1 (configuration not stated) -6.56%
CCOC(=O)c1sc2ccccc2c1S(=O)(=O)N1CCN(c2cc(C)ccc2C)CC1 0%
COc1ccc(CCNC(=O)c2cc3c(=O)oc4ccc(C)cc4c3s2)cc1OC -6.29%
CCNC(=O)c1cc2n(n1)CCCN(Cc1ccc(C)cc1)C2=O -14.3%
COc1ccc(OCC(=O)Nc2ccc3nn(-c4ccc(OC)cc4)nc3c2)cc1 -7.41%
O=C(C1CCN(c2ncnc3c2nc2n3CCCCC2)CC1)N1CCN(c2ccc(Cl)cc2)CC1 -9.69%
Cc1nn(C(=O)c2cccc(F)c2)c(C)c1S(=O)(=O)N1CCOCC1 -15.7%
COc1ccc(Nc2cc(C(=O)NC3CCCC3)c3ccccc3n2)cc1 -5.64%
COc1ccccc1CNc1nc2c(S(=O)(=O)c3ccccc3)nnn2c2ccc(Cl)cc12 11.2%
Cc1ccc(NC(=O)c2c(NC(=O)c3ccccc3Cl)sc3c2CCC3)cc1 -18.1%
O=C(CSc1nccn1Cc1ccc(F)cc1)NCc1ccc(F)cc1 -16.4%
CN1CCN(C(=O)Cn2ncc3c4ccccc4n(Cc4ccc(Cl)cc4)c3c2=O)CC1 -16.7%
CS(=O)(=O)N1CCc2cc(C(=O)N3CCN(c4ccccc4F)CC3)ccc21 -24.6%
O=C1Cc2cc(Cl)ccc2N1 2.26%
Cc1ccccc1NC(=O)Cn1nnc(C(=O)NCCc2ccccc2)c1N -2.57%
CCc1nn2c(=O)c(S(=O)(=O)Nc3ccc(Br)cc3F)c(C)nc2s1 -27.5%
CC(=O)c1cccc(NC(=O)Cn2nc(C(F)(F)F)c3c2CCC3)c1 -22.8%
CSc1nc(=O)c2c(n1C)NC(=O)CC2c1cc(F)cc(F)c1 (configuration not stated) -11.4%
Cc1ccc2nc(Cl)c3cc(C(=O)NCCCN(C)Cc4ccccc4)sc3c2c1 -12%
COc1ccc(C2C(C(=O)Nc3ccc(C)cc3C)=C(C)Nc3nc(SCc4cccc(C)c4)nn32)c(OC)c1 (configuration not stated) -2.74%
COc1ccccc1-c1nn2c(=O)cc(CN3CCN(C(=O)/C=C/c4ccccc4)CC3)nc2s1 -22.5%
CN(C)c1ccc(Nc2nc3ccccc3n3nnnc23)cc1 -19.9%
COc1ccc(N2CCN(S(=O)(=O)c3ccc(-c4cnc(C5CC5)o4)cc3)CC2)cc1 -25.5%
CC1=C(C(=O)Nc2ccc(C)cc2C)C(c2ccc(Br)cc2)n2ncc(C(=O)Nc3cccc(C)c3)c2N1 (configuration not stated) -12.3%
COc1ccccc1CNC(=O)CSc1nc(=O)[nH]c2c1CCC2 -11.1%
CCc1ccc(S(=O)(=O)NCc2nc3cccnc3n2Cc2cccc(OC)c2)cc1 -8.21%
CCCCCn1c(CNC(=O)c2ccccc2)nc2ccccc21 -8.16%
CCN(CC)c1ccc(-n2nc3cc(C)c(NC(=O)c4ccccc4C)cc3n2)c(C)c1 -32.7%
Cc1c(Cl)cccc1Nc1nn2c(=O)c3ccc(C(=O)NCCC4=CCCCC4)cc3nc2s1 -26.3%
Cc1cc(C)c(S(=O)(=O)N2CCN(Cc3ccc4c(c3)OCO4)CC2)cc1C -20%
CCOC(=O)C1=C[C@]2(CC)CCCN3CCc4c(n1c1ccccc41)[C@@H]32
Cc1ccc(-n2c(=O)c3c(C)c(C)sc3n(Cc3ccc(F)cc3Cl)c2=O)cc1C -10.3%
COc1ccc(CCNC(=O)Cc2c(C)c3cc4c(C)coc4cc3oc2=O)cc1OC -1.05%
Oc1ccc(-c2nc3ccc(Cl)cn3c2Nc2ccc3c(c2)OCO3)cc1 12.7%
Cc1cc(C)c(NS(=O)(=O)c2ccc(-c3coc(C)n3)cc2)c(C)c1 -25.9%
COc1cc(C(=O)NCc2nc3cccnc3n2Cc2ccc(C)cc2)cc(OC)c1OC -1.8%
CC(=O)c1ccc(NC(=O)Cn2ncc3c4ccccc4n(Cc4ccccc4)c3c2=O)cc1 -15.3%
O=C(NCc1ccc(Cl)cc1)C1CCN(S(=O)(=O)c2ccccc2)CC1 -36.4%
COc1ccc(N(C(=O)c2ccccc2)S(=O)(=O)c2ccc3c(c2)n(C)c(=O)n3C)cc1 -7.01%
O=C1CC(=O)Nc2cc(S(=O)(=O)N3CCOc4ccc(Cl)cc43)ccc2N1 -28.8%
O=C(c1ccc2c(c1)N(Cc1cccc(Cl)c1)C(=O)c1ccccc1S2=O)N1CCN(c2cccc(C(F)(F)F)c2)CC1 (configuration not stated) -42.8%
Cc1ccc(N(C)C(=O)CN2C(=O)CCc3cc(S(=O)(=O)N4CCOCC4)ccc32)cc1 -15.7%
COc1ccccc1CNC(=O)CCn1cnc2ccccc2c1=O -5.51%
O=C(NC1CC(=O)N(c2ccc(F)cc2)C1)c1ccc2c(c1)OCO2 (configuration not stated) 6.49%
CCN1CCN(C(c2ccccc2Cl)c2c(O)cc(C)n(Cc3ccco3)c2=O)CC1 (configuration not stated) 0.573%
O=C(Cn1c(=O)n2nc(-c3cccc(F)c3)nc2c2ccccc21)N1CCN(c2ccc(F)cc2)CC1 11.9%
Cc1cccc(Cn2nnc3c(=O)[nH]c(C4CCCN(C(=O)c5ccccc5Cl)C4)nc32)c1 (configuration not stated) -19.7%
Cc1cccc(N2CCN(C(=O)c3noc4c3CCCCC4)CC2)c1C -3.51%
CC(NC(=O)c1ccc(F)cc1)c1nc2ccccc2[nH]1 (configuration not stated) 17.6%
CCc1ccc(NC(=O)Cn2c(=O)n(-c3cc(OC)c(OC)c(OC)c3)c(=O)c3ccccc32)cc1 -20.6%
Cc1cc(C(=O)C(=O)Nc2nncs2)c(C)n1-c1ccc(Cl)cc1 -0.751%
COc1ccccc1NC(=O)c1cn(-c2ccccc2)nc1-c1ccccc1 -26.9%
COc1ccc(N2CCN(C(=O)CNS(=O)(=O)c3ccc(Br)s3)CC2)cc1 -30%
N#Cc1nc(/C=C/c2ccc(F)cc2)oc1NCc1ccc(F)cc1 4.5%
O=C(CNC(=O)c1ccc(F)cc1)OCc1cc(=O)n2nc(C3CCCCC3)sc2n1 -3.57%
COc1ccc(OC)c(NC(=O)CN2CCCN(Cc3ccccc3Cl)S2(=O)=O)c1 -29.6%
CCOc1cc(CNC(=O)c2ccc3c(c2)N(C)C(=O)C2CCCCN32)ccc1OC (configuration not stated) 9.64%
CCOc1ccccc1C(=O)NCc1nc2cccnc2n1Cc1ccc(C)cc1 -13.5%
COc1ccc(CNC(=O)CCCn2nc(C)c3c(C)n(-c4ccc(C)cc4)nc3c2=O)cc1OC -33.6%
CCN(c1ccccc1)c1nnc(NC(=O)Nc2ccc(Br)c(C)c2)s1 8.69%
O=C(c1ccc2c(Cl)c3c(nc2c1)CCCC3)N1CCN(c2cccc(C(F)(F)F)c2)CC1 -9.73%
O=C(CN1C(=O)COc2ccc(S(=O)(=O)N3CCCCCC3)cc21)N1CCN(c2ccccc2F)CC1 -16.4%
CCOc1ccc(CNC(=O)CCS(=O)(=O)c2cc3c4c(c2)CCN4C(=O)CC3)cc1OC -17.3%
CCc1ccc(S(=O)(=O)c2cn(CC)c3cc(N4CCCCC4)c(F)cc3c2=O)cc1 6.78%
COc1ccc2nc(NC(=O)c3cc(=O)c4cc(C)cc(C)c4o3)sc2c1 -8.94%
COc1cc(OC)c(NC(=O)C2CCN(S(=O)(=O)c3ccc4c(c3)oc(=O)n4C)CC2)cc1Cl 6.43%
COc1ccc2c(CNCCc3cccs3)c(C(=O)O)n(Cc3cccc(F)c3)c2c1 -22.6%
Cc1ccc(CNC(=O)CN2CCN(Cc3ccc(F)cc3Cl)C2=O)cc1 -0.945%
Nc1c(C(=O)NCc2ccc(Cl)cc2)sc2nc(-c3ccc(F)cc3)ccc12 -10.8%
CCc1ccc(Nc2sc(C(=O)c3ccc(F)cc3)c(N)c2S(=O)(=O)c2ccccc2)cc1 -20.3%
COc1ccc(C(=O)N2CCN(CC(=O)N3CCOCC3)CC2)cc1 -2.18%
COc1ccc(OC)c(NC(=O)CCNS(=O)(=O)c2ccc3c(c2)oc(=O)n3C)c1 -5.65%
COc1cccc(CNC(=O)C2CCN(c3nc4ccc(Cl)cc4[nH]3)CC2)c1 -10%
CCCCc1cc(=O)oc2cc(C)c3c(C)coc3c12 -8.15%
Cc1ccc(C2c3c(-c4ccccc4O)n[nH]c3C(=O)N2CCCO)cc1 (configuration not stated) -29.7%
CCOC(=O)c1cccc(NC(=O)c2ccc3c(c2)nnn3C2CCCC2)c1 -1.4%
Cn1cnc(S(=O)(=O)N2CCCC(C(=O)Nc3ccc(F)cc3Cl)C2)c1 (configuration not stated) -28.4%
Cc1ccc(Cn2c(C(=O)Nc3cccc(Cl)c3)cc3sccc32)cc1 -12.6%
COc1cc(C(=O)NC2CCCNC2)cc(OC)c1OC (configuration not stated) 10.7%
Cn1nnnc1SCCNCc1ccccc1OCc1ccccc1F -28.5%
COc1cccc(C(=O)Nc2ccc(Cl)c(-c3nc4ccccc4[nH]3)c2)c1 -20.8%
CCc1ccc(OCCCSc2nc(-c3ccc(C(C)(C)C)cc3)nc3cc(=O)[nH]n23)cc1 -5.61%
Cc1ccc(S(=O)(=O)c2cn(C)c3cc(N4CCCCCC4)c(F)cc3c2=O)cc1 -10%
CC(=O)c1ccc(NS(=O)(=O)c2cc(-c3cnc(C4CC4)o3)ccc2C)cc1 -27.1%
Cc1ccccc1NC(=O)c1ccc2nc(Cc3ccccc3)oc2c1 -29.9%
CCOc1ccc(NC(=O)c2cc3c(-c4ccccc4F)nn(C)c3s2)cc1 -15.5%
